# Source: ChEMBL document CHEMBL4888484, “Replenishing the malaria drug discovery pipeline: Screening and hit evaluation of the MMV Hit Generation Library 1 (HGL1) against asexual blood stage Plasmodium falciparum ,using a nano luciferase reporter read-out” (2022)
# Hit rate of the full screen: of about 150,000 compounds, about 540 (0.36%) showed an effect of 50% or more. The list shows a part of the results.
# Test system: Plasmodium falciparum
# Test: Primary screen in NF54 nanoGlo assay, in single point, at 2uM, 72h; a lower Z score goes with more inhibition
# Format: functional, Erythrocyte
# Details: timepoint 72 hour
SMILES,% Inhibition [%],Z score
COc1ccc(-c2ccc(N3CCN(C(=O)CN(C(C)=O)[C@@H](C)c4ccccc4)CC3)nn2)cc1OC,-20,1.74
C=C(C)c1nc(C#N)c(NCc2ccc3c(c2)OCO3)o1,-18,2.74
COc1cc(-n2cnnn2)ccc1NC(=O)CCc1ccnn1C,-24,2.43
COc1ccc(-c2cnc3nnc(C)n3c2)cc1F,-5,0.86
CCO[C@H]1CN(CC(=O)Nc2cnn(C)c2)C[C@@H]1O,6,-0.97
Cc1ccc(-c2ccc(C(=O)NC3(C(N)=O)CCCCCC3)cc2)nc1,3,-0.47
CC(C)CC1NC2(C(=O)N(Cc3ccc(F)cc3)c3ccccc32)C2C(=O)N(c3ccccc3)C(=O)C12 (stereo not drawn),36,-4.01
CCOCCC(=O)N1CC[C@H](C(C)(C)O)C1,-3,0.41
COc1ccccc1Cc1nc(CN2CCOCC2)n(C(C)(C)C)n1,-7,0.93
C[C@H](Nc1nnc(C(C)(C)C)s1)c1nnc2n1CCC2,-1,0.07
CCc1cccc(OC2CN(Cc3ccc(OC)c(O)c3)C2)c1,-28,2.61
C[C@@H](C(=O)Nc1cc(C2CCCC2)[nH]n1)c1cccnc1,-7,1.38
O=C1CC[C@H](C(=O)Nc2ccc3oc(-c4cc(F)ccc4Br)nc3c2)CN1,-4,0.59
CC(C)CN(CC(C)C)CN1C(=O)NC2(CCCCCCC2)C1=O,0,0.05
CS(=O)(=O)CCCS(=O)(=O)N1CC(OCCCOc2ccccc2)C1,0,0.05
O=C1COc2ccc(S(=O)(=O)N3CCC[C@H](C(=O)NCCCc4ccccc4)C3)cc2N1,-10,1.8
Cn1cc(C(=O)Nc2cccc(-c3ccc(=O)[nH]n3)c2)cn1,-17,2.55
CC1CN(C(=O)CN2CC(C)OCC2C)CCO1 (stereo not drawn),-13,1.37
CC(C)n1cnnc1CN1CCC[C@H](c2nnc[nH]2)C1,-9,1.19
CS(=O)(=O)c1ccc(S(=O)(=O)Nc2cccc(Nc3nc4ccccc4s3)c2)cc1,-6,1.21
COc1ccc(-c2cc(OCC(N)=O)c3cc(NC(=O)c4ccccc4Cl)ccc3n2)cc1,12,-1.22
CC(=O)NC(C(=O)N1CC(C)OC(C)C1)C(C)C (stereo not drawn),5,-0.64
Clc1ccc(C2Nc3ccc(Cl)cc3C(c3ccccc3)O2)cc1 (stereo not drawn),-4,0.69
CC(C)Cc1cc(C(=O)n2ncc(C#N)c2N)[nH]n1,-7,0.7
CCC1(CC)CCCN(C(=O)c2ccnnc2)CC1,1,-0.17
CC[C@@H](CC#N)NC(=O)Nc1c(C)cc(Br)cc1OC,-2,0.24
CCc1sc(C(=O)NCC(C)C)cc1C,-19,1.72

SMILES,% Inhibition [%],Z score
NC(=O)c1cc(F)ccc1Br,-4,0.41
Cc1ccsc1C(=O)N1CC(n2cnnc2[C@@H]2CCCO2)C1,28,-3.8
Cc1cnn([C@H]2[C@@H]3OC[C@@H](O3)[C@@H](NC(=O)Nc3cccc(F)c3)[C@@H]2O)c1,-8,1.26
C[C@H](NS(=O)(=O)c1ccc2c(c1)CCN2C(=O)N1CCCC1)C(=O)N1CCCCC1,0,-0.04
COCC(=O)Nc1cc(C(=O)N2CC[C@H](N(C)C)C2)c2c(c1)nc(C1CCC1)n2C,-8,1.1
Cc1cc(C(F)(F)F)cc(N2C[C@H]3CC[C@@H](C2)[C@@H]3N)n1,-2,0.41
Cc1ccccc1C1CC1C(=O)N(C)Cc1nnc2n1CCC2 (stereo not drawn),-13,2.48
CN(C)CCN(Cc1ccccc1)C(=O)Nc1c(-c2ccc(Cl)cc2)nn(-c2ccc(F)cc2)c1N,-11,1.17
CCOC(=O)[C@H](C)NC(=O)NC1CCC(F)(F)CC1,-17,2.19
Cc1cnc(NCCOCCO)nc1C,-7,0.79
FC(F)(F)Oc1cccc(-n2ccnc2-c2cc3n(n2)CCCNC3)c1,-1,0.2
CCN(Cc1cnn(CC)c1)S(=O)(=O)c1cc(-c2ccno2)oc1C,-2,0.45
Cc1cc(CN(C)[C@@H](C)CC(C)C)on1,-5,0.58
Cn1c(=O)c(C(=O)N2CCCc3ccccc32)cc2cccnc21,-8,1.04
NC(=O)CN1CCCCCc2ccccc21,-6,0.63
Cc1nc([C@H](NC(=O)C(C)(F)F)c2ccc(Cl)c(F)c2)no1,-1,0.17
CCOC(=O)N1CCN(C(=O)CCc2nc(O)c3ccccc3n2)CC1,-11,1.18
COc1ccc(-n2cc(C(=O)O)c3c2[C@@H](c2ccccc2)CC(O)=N3)cc1,-16,2.03
Cc1cc(S(=O)(=O)[C@H]2CS(=O)(=O)C[C@@H]2NCCc2ccc(Cl)cc2)ccc1F,5,-0.7
Cc1cc(C)nc(O[C@H]2CCCN(C(=O)c3ccccc3Br)C2)n1,10,-1.38
CN1CCc2[nH]nc(C(=O)NC[C@@H](CO)Cc3ccsc3)c2C1,1,-0.21
COc1cccc(C(=O)NCC2CCN(c3ccnc(C)c3)CC2)c1,22,-2.81
CC1CC(N(C)C(=O)Nc2cn[nH]c2)CCN1Cc1ccccc1 (stereo not drawn),-11,1.72
COc1cc(Br)c(F)cc1S(=O)(=O)N[C@H]1CCN(C)C(=O)C1,-1,0.09
NC(=NOCCN1CC2CCC(C1)O2)c1ccc(N2CCCCC2)nc1,-9,0.79
O=C1c2ccccc2C(=O)N1CN1CCc2ccccc2C1,-11,1.39
Cc1nc(C(=O)N[C@@H]2c3ccccc3CC[C@@H]2O)c(C)[nH]1,-6,0.77
